We go through four molecules from patent US20240336682A1 (SHENGHE CHINA BIOPHARMACEUTICAL, published 2024).

What is called EC50 (read off the curve) is the concentration needed to bring the measured effect to its halfway point.

The chains are these.
T1: Human-CD24-His (human, UniProt P25063 27-59)
T1 construct: also called CD24 protein; not shown: His tag
T1 chain (looked up): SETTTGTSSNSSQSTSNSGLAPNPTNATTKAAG

B1: DNT-D (other)
light 1: EVQLVESGGGLVQPGGSLRLSCAASGITFSRSVMGWFRQAPGKLRELVAGITSDDNTDYADSVKGRFTISRDNSKNTLYLQMNSLRAEDTAVYYCNILPDSRLGWGQGTLVTVSSGGGGSGGGGSGGGGSQVQLVQSGSELKKPGASVKVSCKASGYIFTDYAIHWVRQAPGQGLEWMGFINTATGEPTYADDFKGRFVFSLDTSVSTAYLQISSLKAEDTAVYFCTSGVHWGQGTLVTVSSRTVAAPSVFIFPPSDEQLKSGTASVVCLLNNFYPREAKVQWKVDNALQSGNSQESVTEQDSKDSTYSLSSTLTLSKADYEKHKVYACEVTHQGLSSPVTKSFNRGEC
heavy 1: DIQMTQSPSTLSASVGDRVTITCSASSSVSSMHWYQQKPGKAPKLLIYSTSNLASGVPSRFSGSGSGTEYTLTISSLQPDDFATYYCHHWTSYMYTFGGGTKVEIK[human IgG1 constant region with changes not spelt out]GGSGGGGSGGGGSGGGGSGIPPHVQKSVNNDMIVTDNNGAVKFPQLCKFCDVRFSTCDNQKSCMSNCSITSICEKPQEVCVAVWRKNDENITLETVCHDPKLPYHDFILEDAASPKCIMKEKKKPGETFFMCSCSSDECNDNIIFSEEYNTSNPD
heavy 2: QVQLVQSGSELKKPGASVKVSCKASGYIFTDYAIHWVRQAPGQGLEWMGFINTATGEPTYADDFKGRFVFSLDTSVSTAYLQISSLKAEDTAVYFCTSGVHWGQGTLVTVSS[human IgG1 constant region with changes not spelt out]GGSGGGGSGGGGSGGGGSGIPPHVQKSVNNDMIVTDNNGAVKFPQLCKFCDVRFSTCDNQKSCMSNCSITSICEKPQEVCVAVWRKNDENITLETVCHDPKLPYHDFILEDAASPKCIMKEKKKPGETFFMCSCSSDECNDNIIFSEEYNTSNPD
light 2: DIQMTQSPSTLSASVGDRVTITCSASSSVSSMHWYQQKPGKAPKLLIYSTSNLASGVPSRFSGSGSGTEYTLTISSLQPDDFATYYCHHWTSYMYTFGGGTKVEIKRTVAAPSVFIFPPSDEQLKSGTASVVCLLNNFYPREAKVQWKVDNALQSGNSQESVTEQDSKDSTYSLSSTLTLSKADYEKHKVYACEVTHQGLSSPVTKSFNRGEC
notes: also called constructed antibody DNT-D; trifunctional antibody
B2: DNT-E (other)
light: DIQMTQSPSTLSASVGDRVTITCSASSSVSSMHWYQQKPGKAPKLLIYSTSNLASGVPSRFSGSGSGTEYTLTISSLQPDDFATYYCHHWTSYMYTFGGGTKVEIKRTVAAPSVFIFPPSDEQLKSGTASVVCLLNNFYPREAKVQWKVDNALQSGNSQESVTEQDSKDSTYSLSSTLTLSKADYEKHKVYACEVTHQGLSSPVTKSFNRGEC
heavy 1: EVQLVESGGGLVQPGGSLRLSCAASGITFSRSVMGWFRQAPGKLRELVAGITSDDNTDYADSVKGRFTISRDNSKNTLYLQMNSLRAEDTAVYYCNILPDSRLGWGQGTLVTVSSGGGGSGGGGSGGGGSQVQLVQSGSELKKPGASVKVSCKASGYIFTDYAIHWVRQAPGQGLEWMGFINTATGEPTYADDFKGRFVFSLDTSVSTAYLQISSLKAEDTAVYFCTSGVHWGQGTLVTVSS[human IgG1 constant region with changes not spelt out]GGSGGGGSGGGGSGGGGSGIPPHVQKSVNNDMIVTDNNGAVKFPQLCKFCDVRFSTCDNQKSCMSNCSITSICEKPQEVCVAVWRKNDENITLETVCHDPKLPYHDFILEDAASPKCIMKEKKKPGETFFMCSCSSDECNDNIIFSEEYNTSNPD
heavy 2: QVQLVQSGSELKKPGASVKVSCKASGYIFTDYAIHWVRQAPGQGLEWMGFINTATGEPTYADDFKGRFVFSLDTSVSTAYLQISSLKAEDTAVYFCTSGVHWGQGTLVTVSS[human IgG1 constant region with changes not spelt out]GGSGGGGSGGGGSGGGGSGIPPHVQKSVNNDMIVTDNNGAVKFPQLCKFCDVRFSTCDNQKSCMSNCSITSICEKPQEVCVAVWRKNDENITLETVCHDPKLPYHDFILEDAASPKCIMKEKKKPGETFFMCSCSSDECNDNIIFSEEYNTSNPD
notes: also called constructed antibody DNT-E; trifunctional antibody
B3: DNT-F (other)
light 1: QVQLVQSGSELKKPGASVKVSCKASGYIFTDYAIHWVRQAPGQGLEWMGFINTATGEPTYADDFKGRFVFSLDTSVSTAYLQISSLKAEDTAVYFCTSGVHWGQGTLVTVSSRTVAAPSVFIFPPSDEQLKSGTASVVCLLNNFYPREAKVQWKVDNALQSGNSQESVTEQDSKDSTYSLSSTLTLSKADYEKHKVYACEVTHQGLSSPVTKSFNRGECGGGGSGGGGSGGGGSGGGGSEVQLVESGGGLVQPGGSLRLSCAASGITFSRSVMGWFRQAPGKLRELVAGITSDDNTDYADSVKGRFTISRDNSKNTLYLQMNSLRAEDTAVYYCNILPDSRLGWGQGTLVTVSS
heavy 1: DIQMTQSPSTLSASVGDRVTITCSASSSVSSMHWYQQKPGKAPKLLIYSTSNLASGVPSRFSGSGSGTEYTLTISSLQPDDFATYYCHHWTSYMYTFGGGTKVEIK[human IgG1 constant region with changes not spelt out]GGSGGGGSGGGGSGGGGSGIPPHVQKSVNNDMIVTDNNGAVKFPQLCKFCDVRFSTCDNQKSCMSNCSITSICEKPQEVCVAVWRKNDENITLETVCHDPKLPYHDFILEDAASPKCIMKEKKKPGETFFMCSCSSDECNDNIIFSEEYNTSNPD
heavy 2: QVQLVQSGSELKKPGASVKVSCKASGYIFTDYAIHWVRQAPGQGLEWMGFINTATGEPTYADDFKGRFVFSLDTSVSTAYLQISSLKAEDTAVYFCTSGVHWGQGTLVTVSS[human IgG1 constant region with changes not spelt out]GGSGGGGSGGGGSGGGGSGIPPHVQKSVNNDMIVTDNNGAVKFPQLCKFCDVRFSTCDNQKSCMSNCSITSICEKPQEVCVAVWRKNDENITLETVCHDPKLPYHDFILEDAASPKCIMKEKKKPGETFFMCSCSSDECNDNIIFSEEYNTSNPD
light 2: DIQMTQSPSTLSASVGDRVTITCSASSSVSSMHWYQQKPGKAPKLLIYSTSNLASGVPSRFSGSGSGTEYTLTISSLQPDDFATYYCHHWTSYMYTFGGGTKVEIKRTVAAPSVFIFPPSDEQLKSGTASVVCLLNNFYPREAKVQWKVDNALQSGNSQESVTEQDSKDSTYSLSSTLTLSKADYEKHKVYACEVTHQGLSSPVTKSFNRGEC
notes: also called constructed antibody DNT-F; trifunctional antibody
B4: DNT-A (other)
light: EVQLVESGGGLVQPGGSLRLSCAASGITFSRSVMGWFRQAPGKLRELVAGITSDDNTDYADSVKGRFTISRDNSKNTLYLQMNSLRAEDTAVYYCNILPDSRLGWGQGTLVTVSSGGGGSGGGGSGGGGSDIQMTQSPSTLSASVGDRVTITCSASSSVSSMHWYQQKPGKAPKLLIYSTSNLASGVPSRFSGSGSGTEYTLTISSLQPDDFATYYCHHWTSYMYTFGGGTKVEIKRTVAAPSVFIFPPSDEQLKSGTASVVCLLNNFYPREAKVQWKVDNALQSGNSQESVTEQDSKDSTYSLSSTLTLSKADYEKHKVYACEVTHQGLSSPVTKSFNRGEC
heavy: QVQLVQSGSELKKPGASVKVSCKASGYIFTDYAIHWVRQAPGQGLEWMGFINTATGEPTYADDFKGRFVFSLDTSVSTAYLQISSLKAEDTAVYFCTSGVHWGQGTLVTVSS[human IgG1 constant region not spelt out]GGSGGGGSGGGGSGGGGSGIPPHVQKSVNNDMIVTDNNGAVKFPQLCKFCDVRFSTCDNQKSCMSNCSITSICEKPQEVCVAVWRKNDENITLETVCHDPKLPYHDFILEDAASPKCIMKEKKKPGETFFMCSCSSDECNDNIIFSEEYNTSNPD
notes: also called constructed antibody DNT-A; trifunctional antibody

The experiment concerns the target T1, Human-CD24-His. As to the kind of experiment: ELISA, Human-CD24-His coated at 1 ug/mL, HRP goat anti-human IgG-Fc. How it is done: Human-CD24-His was diluted to 1 μg/mL with PBS buffer at pH 7.4, added into the 96-well ELISA plate at 100 μL per well, coated overnight at 4° C., and blocked with 1% BSA blocking solution for 1 hour. The plate was washed 3 times with PBST, and the constructed antibodies were diluted to 20 μg/mL with 0.5% BSA sample diluent as the starting concentration, and then diluted by 3-fold gradient (11 gradients in total) and incubated at 37° C. for 1 h at 100 μL per well. The plate was washed 3 times with PBST, and then HRP-labelled goat anti-human IgG-Fc (jackson Cat: 109-035-098) was diluted with the sample diluent at 1:10000. 100 μL was added into each well, and incubated at room temperature for 1 hour. A negative control (blank well and IgG1 isotype control) and a positive control were set, and the positive control was a CD24 monoclonal antibody (CD24 sequence consists of SEQ ID No. 12 and SEQ ID No. 34). The plate was washed 4 times with PBST, and 100 μL of TMB substrate was added into each well, and incubated at room temperature without light for 10 minutes. 100 μL of 1 M HCl solution was added into each well to terminate the color development reaction. The absorbance value of each well in the 96-well plate was determined by selecting the wavelength of 450 nm and the reference wavelength of 570 nm on a multifunctional enzyme marker, and the absorbance value (OD)=OD₄₅₀ₙₘ−OD₅₇₀ₙₘ. The logarithm of the concentration of the constructed antibodies were taken as the abscissa, and the measured absorbance value of each well was taken as the ordinate, and the Sigmoidaldose-response (Variable Slope) method (GraphPad Prism software, GraphPad Software, San Diego, California) was selected for nonlinear regression to obtain the binding curve of the target antibodies to the CD24 protein.
For B1, the “EC50 (read off the curve)” value is approximately 0.08 µg/mL.

On to B2, for which the “EC50 (read off the curve)” value was approximately 0.03 µg/mL.

For B3, the “EC50 (read off the curve)” value was approximately 0.03 µg/mL.

Regarding B4, the “EC50 (read off the curve)” value is approximately 0.2 µg/mL.
